The campaign covered roughly 150,000 compounds. About 540 (0.36%) showed an effect of 50% or more. This is one part of the list.

For the assay, the system named is Plasmodium falciparum. In words: Primary screen in NF54 nanoGlo assay, in single point, at 2uM, 72h; a lower Z score goes with more inhibition. It is filed as functional, Erythrocyte. The conditions noted are these: timepoint 72 hour.
The term % Inhibition denotes the drop in the measured response relative to a control, in per cent. Take `CN1CCCN(CC2CC(CO)CN(C/C=C/c3ccc(F)cc3)C2)CC1` (stereo unspecified): the “% Inhibition” value is 19% and the Z score is reported as -3.74.
The corresponding values for `O=C1C2CCCCC2C(c2c(-c3ccccc3)[nH]c3ccccc23)N1Cc1ccccc1` (stereo unspecified) are 41% and -8.2.
On to `O[C@H]1CCCN(CCCNc2nccc3ccccc23)C1`, for which the “% Inhibition” value is -2% and the Z score worked out at 0.39.
`Cc1cc(S(=O)(=O)NCc2csc(=O)[nH]2)c(C)s1`: the “% Inhibition” value is given as -5% and the Z score turned out to be 1.15.
Turning to `Cc1cnccc1NCCNCc1cccc(OCCCCN2CCOCC2)c1`, the “% Inhibition” value is given as 95% and the Z score is recorded as -20.36.
Regarding `Fc1ccc2[nH]c(-c3ccon3)nc2c1`, the “% Inhibition” value is on record as -12% and the Z score is given as 2.09.
For `Cc1cc(O)c(Cl)cc1-c1ccc2nccc(N)c2c1` the same measures were 91% and -15.94.
Consider `O=C(Cc1cc[nH]n1)N[C@@]1(Cc2ccc(Cl)cc2)CCOC1`, for which the “% Inhibition” value amounted to 1% and the Z score is -0.08.
Consider `CN1CC[C@H](CNc2ncnc3c2CCN(C2CCOCC2)CC3)C1`, for which the “% Inhibition” value is recorded as -4% and the Z score is 0.73.
Take `O=S(=O)(Cc1noc2ccccc12)N1CCC[C@H](Cn2ccnn2)C1`: the “% Inhibition” value stood at 2% and the Z score is reported as -0.34.
As to `O[C@@]1(CN2CCN(C/C=C/c3ccccc3)CC2)CCCN2CCCC[C@@H]21`, the “% Inhibition” value is listed as 8% and the Z score is on record as -1.68.
The corresponding values for `CN1CCCN(CCCNC2CCC(C(F)(F)F)CC2)CC1` (stereo unspecified) are 19% and -3.29.
`C[C@H]1COCCN1CCN1CCC(c2nc3c(F)cccc3[nH]2)CC1`: the “% Inhibition” value is -5% and the Z score worked out at 0.75.
As for `CN1CCN(C(=O)CN2CCN(CCC(=O)Nc3ccc4cc[nH]c4c3)CC2)CC1`, the “% Inhibition” value was found to be 5% and the Z score was -0.91.
For `Cc1cc(N2CCN(C[C@H](O)C(C)(C)C)CC2)nc(N)n1` the same measures were -11% and 1.98.
The corresponding values for `Cc1cccc(N2CCN(Cc3nc(-c4ccc(-c5ccccc5)cc4)oc3C)CC2)n1` are -8% and 1.43.
The corresponding values for `CC(C)C1CCC(N2CCN(CCN3CCO[C@@H](C)C3)CC2)CC1` (stereo partly specified) are -7% and 1.09.
Consider `Cc1cc(NC(=O)NC[C@H](O)c2cccs2)n(CC(C)C)n1`, for which the “% Inhibition” value is recorded as -5% and the Z score is on record as 0.72.
As to `OCCNc1nc(NC2CCCCCC2)cc([C@H]2CCOC2)n1`, the “% Inhibition” value is -11% and the Z score turned out to be 1.83.
On to `O=C(C1CCCC1)N1CC(O)C(Cc2ccnc3ccccc23)C1` (stereo unspecified), for which the “% Inhibition” value stood at 5% and the Z score is -0.99.
For `O=C(CN1Cc2ccccc2C1=O)N[C@@H](C(=O)O)c1ccc2c(c1)CCO2` the same measures were -5% and 0.86.
For `O=C(c1ccc(N[C@H]2CCCN(Cc3ccc(F)cc3)C2)nc1)N1CCOCC1`, the “% Inhibition” value was -1% and the Z score was found to be 0.19.
Take `c1ccc(N2CCOCC2)c(CNc2ccc3[nH]ncc3c2)c1`: the “% Inhibition” value is on record as -4% and the Z score amounted to 0.79.

(Values after ChEMBL document CHEMBL5308541, “MAIP: An Open-Source Tool to Enrich High-Throughput Screening Output and Identify Novel, Druglike Molecules with Antimalarial Activity” (ACS Med Chem Lett, 2023).)
